Test results taken from the antibiotic and cytotoxicity screens of Wong et al. (2023).
The list shows a part of the results.

The compounds below were run on HSkMC (human skeletal muscle cells) (assay: cytotoxicity call (relative viability < 0.9)). Conditions: 10 µM.

**Q.** With C[C@H]1CN([C@@H](C)CO)C(=O)c2cc(C#CC3(O)CCCC3)cnc2O[C@@H]1CN(C)C(=O)C1CCCCC1 as the compound, how does the cytotoxicity call read?
**A.** The cytotoxicity call was “inactive”.

**Q.** For C[C@@H]1CN([C@@H](C)CO)S(=O)(=O)c2ccc(C#CC(C)(C)O)cc2O[C@H]1CN(C)C(=O)CN(C)C, which cytotoxicity call is on record?
**A.** Its cytotoxicity call is “inactive”.

**Q.** How did the cytotoxicity call turn out when C[C@@H]1CN([C@H](C)CO)C(=O)CCCn2cc(nn2)CO[C@H]1CN(C)C(=O)Nc1ccc2c(c1)OCO2 was run?
**A.** Its cytotoxicity call is “inactive”.

**Q.** How did the cytotoxicity call turn out when COc1cccc(S(=O)(=O)N(C)C[C@H]2Oc3cc(C#CCC(C)C)ccc3S(=O)(=O)N([C@H](C)CO)C[C@H]2C)c1 was run?
**A.** The cytotoxicity call was “inactive”.

**Q.** How did the cytotoxicity call turn out when Cc1ccc(S(=O)(=O)Nc2ccc3c(c2)C(=O)N([C@H](C)CO)C[C@@H](C)[C@H](CN(C)C(=O)Nc2ccc(F)cc2)OCCCC[C@@H](C)O3)cc1 was run?
**A.** The cytotoxicity call was “active”.

**Q.** How did the cytotoxicity call turn out when C[C@@H]1CN([C@H](C)CO)S(=O)(=O)c2ccc(C#C[C@@H](C)O)cc2O[C@H]1CN(C)C(=O)Cc1ccccn1 was run?
**A.** Its cytotoxicity call is “inactive”.

**Q.** For CCN1C[C@]23CN(Cc4cnn(C)c4)C[C@@H](C[C@H]2S1(=O)=O)O3, which cytotoxicity call is on record?
**A.** The cytotoxicity call was “inactive”.

**Q.** Which cytotoxicity call does the source give for C[C@@H]1CN([C@H](C)CO)C(=O)Cc2cc(N(C)C)ccc2O[C@H]1CN(C)S(=O)(=O)c1ccc(Cl)cc1 here?
**A.** The cytotoxicity call was “inactive”.

**Q.** With C[C@H](CO)N1C[C@H](C)[C@H](CN(C)S(=O)(=O)c2ccc(F)cc2)Oc2ccc(NC(=O)CCCN(C)C)cc2C1=O as the compound, how does the cytotoxicity call read?
**A.** Its cytotoxicity call is “inactive”.

**Q.** For COc1ccc(S(=O)(=O)N(C)C[C@@H]2OCc3cn(nn3)CCCC(=O)N([C@@H](C)CO)C[C@H]2C)cc1, which cytotoxicity call is on record?
**A.** The cytotoxicity call was “inactive”.

**Q.** For C[C@@H]1CN([C@H](C)CO)C(=O)c2cc(NC(=O)Cn3cnnn3)ccc2O[C@H]1CN(C)Cc1ccc(C(F)(F)F)cc1, which cytotoxicity call is on record?
**A.** Its cytotoxicity call is “inactive”.

Each compound was assayed on HepG2 (assay: cytotoxicity call (relative viability < 0.9)). Conditions: 10 µM.

**Q.** For C[C@H]1CN([C@@H](C)CO)C(=O)c2cccc(NS(=O)(=O)c3cccs3)c2O[C@@H]1CN(C)Cc1ccc(Oc2ccccc2)cc1, which cytotoxicity call is on record?
**A.** The cytotoxicity call was “inactive”.

**Q.** Which cytotoxicity call does the source give for COc1ccc(S(=O)(=O)Nc2ccc3c(c2)C(=O)N([C@H](C)CO)C[C@@H](C)[C@@H](CN(C)C(=O)Nc2c(C)noc2C)OCCCC[C@@H](C)O3)cc1 here?
**A.** Its cytotoxicity call is “inactive”.

**Q.** C[C@H]1CN([C@@H](C)CO)C(=O)Cc2cc(NC(=O)Nc3cccc4ccccc34)ccc2O[C@@H]1CN(C)C(=O)Nc1ccc2c(c1)OCO2 was tested. Which cytotoxicity call did it give?
**A.** The cytotoxicity call was “inactive”.

**Q.** Which cytotoxicity call does the source give for Cc1ccc(S(=O)(=O)N(C)C[C@H]2OCCCC[C@H](C)Oc3ccc(NC(=O)Nc4cccc5ccccc45)cc3C(=O)N([C@H](C)CO)C[C@H]2C)cc1 here?
**A.** The cytotoxicity call was “inactive”.

**Q.** Which cytotoxicity call does the source give for C[C@@H]1CN([C@H](C)CO)C(=O)c2cccc(NC(=O)CCCCCC(=O)Nc3ccccc3N)c2O[C@@H]1CN(C)C(=O)Nc1ccc(C(F)(F)F)cc1 here?
**A.** Its cytotoxicity call is “inactive”.

**Q.** C[C@H](CO)N1C[C@H](C)[C@@H](CN(C)C(=O)Nc2cccc3ccccc23)Oc2c(NC(=O)Nc3ccc(F)cc3)cccc2C1=O was tested. Which cytotoxicity call did it give?
**A.** The cytotoxicity call was “inactive”.

**Q.** O=C(C[C@H]1C=C[C@H](NC(=O)CN2CCOCC2)[C@H](CO)O1)NC1CCCCC1 was tested. Which cytotoxicity call did it give?
**A.** The cytotoxicity call was “inactive”.

**Q.** For C[C@H](CO)N1C[C@H](C)[C@H](CN(C)Cc2ccncc2)Oc2c(NS(=O)(=O)c3cn(C)cn3)cccc2C1=O, which cytotoxicity call is on record?
**A.** Its cytotoxicity call is “inactive”.

**Q.** How did the cytotoxicity call turn out when CCOCC(O)COc1ccc(NC(=O)CC[S+](C)C)cc1.Cc1ccc(S(=O)(=O)[O-])cc1 (stereo unspecified) was run?
**A.** The cytotoxicity call was “inactive”.

**Q.** For CC(C)N(CCCNC(=O)Nc1ccc(C(C)(C)C)cc1)C[C@H]1O[C@@H](n2ccc3c(N)ncnc32)[C@H](O)[C@@H]1O, which cytotoxicity call is on record?
**A.** Its cytotoxicity call is “inactive”.

**Q.** Which cytotoxicity call does the source give for CC(C)CC#Cc1cnc2c(c1)C(=O)N([C@H](C)CO)C[C@@H](C)[C@H](CN(C)C(=O)c1ccc3c(c1)OCO3)O2 here?
**A.** Its cytotoxicity call is “inactive”.

**Q.** With C[C@H](CO)N1C[C@H](C)[C@@H](CN(C)S(=O)(=O)c2cccs2)Oc2c(NC(=O)CCCN(C)C)cccc2C1=O as the compound, how does the cytotoxicity call read?
**A.** Its cytotoxicity call is “inactive”.

**Q.** For Cc1ccc(C(=O)N2CCC(n3cc(C(C)(C)N)nn3)CC2)c(C)c1, which cytotoxicity call is on record?
**A.** Its cytotoxicity call is “inactive”.

**Q.** COc1ccc(S(=O)(=O)Nc2ccc3c(c2)C(=O)N([C@H](C)CO)C[C@H](C)[C@H](CN(C)CC2CC2)O3)cc1 was tested. Which cytotoxicity call did it give?
**A.** The cytotoxicity call was “inactive”.

**Q.** Which cytotoxicity call does the source give for CCN1CCCC1=O here?
**A.** Its cytotoxicity call is “inactive”.

**Q.** For O=C(N[C@@H](c1ccccc1)c1ccc2ccccc2n1)C1CCN(Cc2ccc(Cl)c(Cl)c2)CC1, which cytotoxicity call is on record?
**A.** The cytotoxicity call was “inactive”.

**Q.** For C[C@@H]1CN([C@H](C)CO)S(=O)(=O)c2ccc(C#CC(C)(C)O)cc2O[C@H]1CN(C)Cc1ccccc1, which cytotoxicity call is on record?
**A.** Its cytotoxicity call is “inactive”.

**Q.** C[C@@H]1CCCCO[C@@H](CN(C)C(=O)Nc2ccc3c(c2)OCO3)[C@H](C)CN([C@H](C)CO)C(=O)c2cc(NC(=O)Nc3ccc4c(c3)OCO4)ccc2O1 was tested. Which cytotoxicity call did it give?
**A.** Its cytotoxicity call is “inactive”.

**Q.** Cc1noc(C)c1S(=O)(=O)Nc1ccc2c(c1)CC(=O)N([C@@H](C)CO)C[C@H](C)[C@@H](CN(C)S(=O)(=O)c1cn(C)cn1)O2 was tested. Which cytotoxicity call did it give?
**A.** The cytotoxicity call was “inactive”.

**Q.** With Cc1noc(C)c1S(=O)(=O)Nc1cccc2c1O[C@@H](CN(C)C(=O)NC(C)C)[C@@H](C)CN([C@@H](C)CO)C2=O as the compound, how does the cytotoxicity call read?
**A.** Its cytotoxicity call is “inactive”.

**Q.** O=C(O)[C@H](O)[C@@H](O)[C@H](O[C@@H]1O[C@H](CO)[C@H](O)[C@H](O)[C@H]1O)[C@H](O)CO was tested. Which cytotoxicity call did it give?
**A.** Its cytotoxicity call is “inactive”.

**Q.** c1ccc([C@@H]2Oc3ccccc3[C@@H]3Oc4ccccc4C[C@@H]23)cc1 was tested. Which cytotoxicity call did it give?
**A.** Its cytotoxicity call is “inactive”.

**Q.** For C[C@@H]1CN([C@@H](C)CO)C(=O)c2cc(NC(=O)Nc3ccccc3)ccc2O[C@@H](C)C/C=C\CO[C@H]1CN(C)S(=O)(=O)c1ccc(F)cc1, which cytotoxicity call is on record?
**A.** Its cytotoxicity call is “inactive”.

**Q.** For C[C@@H]1CN([C@@H](C)CO)C(=O)c2cccc(NS(=O)(=O)c3ccc(Cl)cc3)c2O[C@@H]1CN(C)Cc1ccc(C(=O)Nc2ccccc2N)cc1, which cytotoxicity call is on record?
**A.** The cytotoxicity call was “active”.

**Q.** O=C(C[C@@H]1CC[C@@H]2[C@H](COC[C@@H](O)CN2S(=O)(=O)c2ccccc2)O1)NCc1ccncn1 was tested. Which cytotoxicity call did it give?
**A.** Its cytotoxicity call is “inactive”.

**Q.** Which cytotoxicity call does the source give for C[C@@H]1CCCCO[C@H](CN(C)C(=O)Nc2cccc3ccccc23)[C@H](C)CN([C@H](C)CO)C(=O)c2cc(NS(=O)(=O)c3ccccc3)ccc2O1 here?
**A.** The cytotoxicity call was “active”.

**Q.** For O=C(O)[C@H](O)c1ccccc1, which cytotoxicity call is on record?
**A.** Its cytotoxicity call is “inactive”.

**Q.** Which cytotoxicity call does the source give for Cc1noc(C)c1S(=O)(=O)Nc1ccc2c(c1)C(=O)N([C@H](C)CO)C[C@H](C)[C@@H](CN(C)S(=O)(=O)c1cn(C)cn1)OCCCC[C@@H](C)O2 here?
**A.** The cytotoxicity call was “inactive”.

**Q.** How did the cytotoxicity call turn out when Cc1noc(C)c1NC(=O)N(C)C[C@@H]1Oc2c(NS(=O)(=O)c3ccccc3)cccc2C(=O)N([C@H](C)CO)C[C@@H]1C was run?
**A.** Its cytotoxicity call is “inactive”.

**Q.** With C[C@H]1CN([C@@H](C)CO)C(=O)c2cc(C#CC3(O)CCCC3)cnc2O[C@@H]1CN(C)C(=O)C1CCCCC1 as the compound, how does the cytotoxicity call read?
**A.** The cytotoxicity call was “inactive”.

**Q.** For C[C@@H]1CN([C@@H](C)CO)S(=O)(=O)c2ccc(C#CC(C)(C)O)cc2O[C@H]1CN(C)C(=O)CN(C)C, which cytotoxicity call is on record?
**A.** The cytotoxicity call was “inactive”.

**Q.** C[C@@H]1CN([C@H](C)CO)C(=O)CCCn2cc(nn2)CO[C@H]1CN(C)C(=O)Nc1ccc2c(c1)OCO2 was tested. Which cytotoxicity call did it give?
**A.** The cytotoxicity call was “inactive”.

**Q.** COc1cccc(S(=O)(=O)N(C)C[C@H]2Oc3cc(C#CCC(C)C)ccc3S(=O)(=O)N([C@H](C)CO)C[C@H]2C)c1 was tested. Which cytotoxicity call did it give?
**A.** The cytotoxicity call was “inactive”.

**Q.** With Cc1ccc(S(=O)(=O)Nc2ccc3c(c2)C(=O)N([C@H](C)CO)C[C@@H](C)[C@H](CN(C)C(=O)Nc2ccc(F)cc2)OCCCC[C@@H](C)O3)cc1 as the compound, how does the cytotoxicity call read?
**A.** Its cytotoxicity call is “active”.

**Q.** With C[C@@H]1CN([C@H](C)CO)S(=O)(=O)c2ccc(C#C[C@@H](C)O)cc2O[C@H]1CN(C)C(=O)Cc1ccccn1 as the compound, how does the cytotoxicity call read?
**A.** The cytotoxicity call was “inactive”.

**Q.** Which cytotoxicity call does the source give for CCN1C[C@]23CN(Cc4cnn(C)c4)C[C@@H](C[C@H]2S1(=O)=O)O3 here?
**A.** Its cytotoxicity call is “inactive”.

**Q.** C[C@@H]1CN([C@H](C)CO)C(=O)Cc2cc(N(C)C)ccc2O[C@H]1CN(C)S(=O)(=O)c1ccc(Cl)cc1 was tested. Which cytotoxicity call did it give?
**A.** Its cytotoxicity call is “inactive”.

**Q.** How did the cytotoxicity call turn out when C[C@H](CO)N1C[C@H](C)[C@H](CN(C)S(=O)(=O)c2ccc(F)cc2)Oc2ccc(NC(=O)CCCN(C)C)cc2C1=O was run?
**A.** The cytotoxicity call was “inactive”.

**Q.** With COc1ccc(S(=O)(=O)N(C)C[C@@H]2OCc3cn(nn3)CCCC(=O)N([C@@H](C)CO)C[C@H]2C)cc1 as the compound, how does the cytotoxicity call read?
**A.** The cytotoxicity call was “inactive”.

**Q.** With C[C@@H]1CN([C@H](C)CO)C(=O)c2cc(NC(=O)Cn3cnnn3)ccc2O[C@H]1CN(C)Cc1ccc(C(F)(F)F)cc1 as the compound, how does the cytotoxicity call read?
**A.** Its cytotoxicity call is “inactive”.
